# Source: the BET-seq Pho4 binding data (Le et al. 2018)
# The list shows a part of the results. Values were computed here from the reads of four pooled replicates and scatter widely.
# Molecular target: T1, Pho4 (S. cerevisiae) (UniProt P07270)
# T1 sequence: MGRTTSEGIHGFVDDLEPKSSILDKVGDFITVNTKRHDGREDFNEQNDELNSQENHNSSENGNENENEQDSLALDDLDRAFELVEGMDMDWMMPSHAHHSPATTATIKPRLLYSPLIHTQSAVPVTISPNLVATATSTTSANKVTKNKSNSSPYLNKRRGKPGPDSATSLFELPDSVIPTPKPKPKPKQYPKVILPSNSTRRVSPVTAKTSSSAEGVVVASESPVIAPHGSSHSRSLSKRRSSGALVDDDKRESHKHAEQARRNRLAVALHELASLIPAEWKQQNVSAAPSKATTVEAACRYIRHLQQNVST
# Experiment: relative binding free energy (BET-seq); higher = weaker binding
# Conditions: reference: library average
row,Sequence,relative binding free energy [kcal/mol]
1,GTTGACACGTGAGTCT,0.22
2,GGCTGCACGTGTTTGG,0.14
3,ATAAACACGTGTTCGT,0.04
4,GGGCACACGTGGGTGA,-0.12
5,GTTGTCACGTGGCACG,0.06
6,CAAGGCACGTGTAGGA,0.04
7,CTCTGCACGTGGGGTA,-0.22
8,AAACGCACGTGATGTT,0.13
9,ATGTTCACGTGATATT,0.27
10,TTTCTCACGTGTTTTG,0.26
11,GGCACCACGTGTAGGG,0.01
12,TGAGGCACGTGCGAGG,-0.12
13,TGTTTCACGTGATCCT,0.41
14,GGGTTCACGTGGTCGG,0.32
15,CTGGGCACGTGAATTG,0.23
16,AAGTACACGTGTTAAG,0.13
17,TGATTCACGTGTTATT,0.13
18,GGAGACACGTGACGTG,0.14
19,GGCCTCACGTGAGGTT,0.42
20,TATATCACGTGGATAA,0.27
21,TTTGACACGTGGGGGC,-0.18
22,TGTCACACGTGGTGGT,-0.06
23,TTCGTCACGTGTGCAT,0.13
24,CCGTGCACGTGAGGTG,0.06
25,ATCGACACGTGGAGTG,0.04
26,CGGGACACGTGCGAGG,0.13

row,Sequence,relative binding free energy [kcal/mol]
1,GGGCTCACGTGTTTGT,0.15
2,TTAGGCACGTGCCTGT,-0.08
3,TGTGGCACGTGTTAGC,-0.09
4,GGCAGCACGTGGGGTC,-0.17
5,CACTTCACGTGTTGGT,0.47
6,GGGTGCACGTGAAGCG,0.27
7,GGCGTCACGTGATGGT,0.29
8,ATGGGCACGTGGCAGG,-0.19
9,GTTTTCACGTGTGGCC,0.41
10,GGCGGCACGTGGGTCG,-0.16
11,TATGTCACGTGGCAGT,0.03
12,GAGGGCACGTGAAGGA,0.29
13,GGCTACACGTGCTGGG,0.06
14,ATATGCACGTGTGAAT,0.07
15,CGGCGCACGTGGGGAT,-0.18
16,TAGAACACGTGAGTGG,0.21
17,CCTTGCACGTGATGTG,0.19
18,TTGGTCACGTGTAGCG,0.24
19,CGTATCACGTGAGGGT,0.25
20,GGTTTCACGTGTAACG,0.29
21,TATGTCACGTGTCATG,0.21
22,ACATTCACGTGTGAGG,0.24
23,GTTGGCACGTGGGACG,-0.16
24,TTGATCACGTGGGCAC,0.09
25,TATATCACGTGGTGAT,0.17
26,GTGCGCACGTGCGTGT,-0.22

row,Sequence,relative binding free energy [kcal/mol]
1,TGCGACACGTGGTACG,0.06
2,GGCGTCACGTGCTGGG,0.13
3,AGGCCCACGTGTTGGG,-0.05
4,AAGTGCACGTGGTCTG,-0.15
5,GGGGACACGTGCTTTT,0.06
6,AAAGGCACGTGGTAGT,-0.22
7,AGCGGCACGTGTTTAG,-0.08
8,TTGTTCACGTGATCTG,0.4
9,GTCAGCACGTGGGTGT,-0.22
10,TGTGGCACGTGCGTTA,-0.19
11,AAATTCACGTGTAGGG,0.28
12,TATTACACGTGGCATG,-0.01
13,TCGTGCACGTGTTTTT,0.02
14,CTGGGCACGTGTTTGG,0
15,TTAAACACGTGTCGGT,-0.07
16,CGATTCACGTGTGCGG,0.26
17,AAGGTCACGTGGGGGA,-0.02
18,TTGTTCACGTGGAGCA,0.17
19,GTAGACACGTGGGTAA,-0.13
20,AATGGCACGTGTGTTA,0
21,GATTGCACGTGGGACG,0.07
22,ATGTACACGTGCGTGT,-0.11
23,GTTCGCACGTGGAATG,0.03
24,AAGTACACGTGGAGGG,0.16
25,GACTTCACGTGGTTTT,0.38
26,GGTGACACGTGTGGCT,0

row,Sequence,relative binding free energy [kcal/mol]
1,TAGGGCACGTGAGTTC,0.02
2,AAGTTCACGTGGTTAT,0.31
3,TGGCCCACGTGAGGTG,0.06
4,ATAATCACGTGTTGTA,0.18
5,TAGCGCACGTGTGCTG,-0.07
6,TTTAGCACGTGTTAGA,0.04
7,TGTTCCACGTGGGGAG,-0.03
8,TACTTCACGTGGCGGT,0.17
9,TAGCGCACGTGAGGGA,0.06
10,GTAGGCACGTGTAGCA,0.12
11,AGAAGCACGTGGTTAA,-0.13
12,CACGGCACGTGTTGGT,-0.08
13,CGCGTCACGTGTAAGG,0.38
14,GTAGGCACGTGTAGTA,-0.02
15,GTGTGCACGTGTGCAT,-0.02
16,AAAGTCACGTGTTGAT,0.2
17,AAGGTCACGTGTCTTT,0
18,TGTCGCACGTGGTTTT,-0.08
19,ATTCTCACGTGACGGG,0.25
20,AGGGCCACGTGAGTGG,0.1
21,TTGAGCACGTGCGATG,-0.11
22,CGTTTCACGTGGTTCA,0.28
23,TATTGCACGTGTTAAC,0.08
24,ATGTGCACGTGTTTTC,-0.04
25,GTAAGCACGTGCAGTT,0.11
26,CAAGGCACGTGTTTAT,-0.09

row,Sequence,relative binding free energy [kcal/mol]
1,TATTGCACGTGTGACG,0.02
2,TGGTTCACGTGGTCAG,0.29
3,TGAGCCACGTGTTAGT,0.04
4,TATCTCACGTGATAGG,0.29
5,TGGTTCACGTGCGTAT,0.23
6,AATGACACGTGTGGGT,0.05
7,AGAGACACGTGGGGGA,-0.01
8,TGCTTCACGTGTGAGG,0.26
9,CATGGCACGTGGTGGA,-0.16
10,AATTACACGTGATGTT,0.22
11,GTAAACACGTGTAATG,0.13
12,AGTTCCACGTGATTTG,0.16
13,CGCGGCACGTGTTTGT,-0.09
14,GGTTACACGTGATTCT,0.37
15,CAAGTCACGTGCGGGA,0.15
16,CGGCTCACGTGGGCTG,0.1
17,GTGGACACGTGGAGGG,0.09
18,AATGACACGTGCTTTG,0.04
19,TATGTCACGTGCGTGA,-0.16
20,AAGCGCACGTGTGTAT,-0.04
21,GTGATCACGTGGGTCG,0.05
22,TTTAACACGTGGTAGC,0.08
23,TAAGGCACGTGTGCGA,-0.18
24,TTTAGCACGTGGGGGT,-0.17
25,ATTCGCACGTGTAGGT,0.02
26,GGTAACACGTGTGCGG,0.03

row,Sequence,relative binding free energy [kcal/mol]
1,GCGATCACGTGATGTG,0.32
2,TCTGTCACGTGTTCTT,0.06
3,TTGCTCACGTGCGATT,0.33
4,GTTTGCACGTGTGCTC,0.12
5,TACGGCACGTGTGCTG,-0.13
6,TTTGTCACGTGCTATG,0.11
7,TAGCACACGTGTGTAT,0.1
8,TGCATCACGTGGTGGG,0.08
9,TTGCGCACGTGGGTCA,-0.27
10,ATCAGCACGTGGTGAT,-0.06
11,ACTTGCACGTGAAGTT,0.36
12,AGTGGCACGTGCTTTG,-0.22
13,TGAGTCACGTGTCTTG,-0.12
14,TATTGCACGTGGTCAT,-0.04
15,CGATGCACGTGGTCGT,-0.09
16,TTCAGCACGTGCTGGG,-0.05
17,TTTTACACGTGTTTCG,0.04
18,TGGCGCACGTGTTGGC,0
19,TGAATCACGTGGGGGA,0.12
20,GATAGCACGTGGTTCT,-0.06
21,TATTCCACGTGTGGTA,0.13
22,CGTTCCACGTGTGTGG,0.15
23,GTCTTCACGTGTGAGG,0.3
24,GTTTGCACGTGAAAGT,0.27
25,GAGGTCACGTGGCTAT,0.18
26,AGTTACACGTGTCGGT,0.07

row,Sequence,relative binding free energy [kcal/mol]
1,CATGTCACGTGGTGGT,0.03
2,TTTAGCACGTGGGTCT,-0.21
3,AGCGGCACGTGTTGAT,0.01
4,TGGTACACGTGACATG,0.28
5,TTAGACACGTGATATT,0.13
6,GGGAGCACGTGAGGGA,0.14
7,TTAGACACGTGCATTT,0.08
8,TTTTTCACGTGTATAG,0.37
9,AACGGCACGTGGTATT,-0.06
10,ATGTCCACGTGTTTAT,0.07
11,TTGGACACGTGCTAAG,0.04
12,GTTTACACGTGGCTAT,0.08
13,TGTTGCACGTGTGTTT,0.17
14,TAGGGCACGTGTGCGG,-0.08
15,TGTCTCACGTGGTTTG,0.16
16,TTAGACACGTGTGTAT,-0.1
17,GTGAGCACGTGTAGAT,0.16
18,AGTGACACGTGTGGAA,0.1
19,TAGTTCACGTGTTAAT,0.17
20,ACGTACACGTGTGTGT,-0.04
21,TGATTCACGTGATTAG,0.26
22,TGGAGCACGTGAGAGG,0.15
23,TTTCTCACGTGATTAG,0.29
24,TTCTGCACGTGGGCGA,-0.12
25,CATTTCACGTGTTTTA,0.09
26,GAGTACACGTGTCGTT,0.2

row,Sequence,relative binding free energy [kcal/mol]
1,TTTCGCACGTGGTATA,-0.2
2,TTAATCACGTGGATCT,0.1
3,ATGTTCACGTGAGTGT,0.33
4,GAGAACACGTGGTAGT,0.06
5,TCGTGCACGTGTCATG,0.06
6,ATTGGCACGTGGATTA,-0.15
7,TTATTCACGTGTGATG,0.24
8,TTAGGCACGTGAGGCG,0.09
9,CGGCGCACGTGGGTAT,-0.3
10,GATTGCACGTGCTGGC,0.13
11,CGTGACACGTGATTTG,0.22
12,AGCGGCACGTGTTCGG,-0.12
13,TCGGGCACGTGAAGCG,0.21
14,GTTGGCACGTGTTTCA,-0.04
15,CTTTTCACGTGTCGGG,0.31
16,AAATGCACGTGCATGT,0.1
17,TTACTCACGTGAGTTG,0.39
18,GTAATCACGTGGCGGT,0.19
19,GCTGACACGTGGGGCG,-0.03
20,TAGGGCACGTGAGGCT,0.23
21,GCTGGCACGTGCAAGG,0
22,GAGTGCACGTGTATCG,0.08
23,ATAGACACGTGGTAGT,-0.25
24,TAGTCCACGTGGGGGA,-0.04
25,GTATACACGTGTTGAT,0.08
26,TAGAGCACGTGTATGA,0.1

row,Sequence,relative binding free energy [kcal/mol]
1,TACGTCACGTGGGAAG,0.17
2,TAGGCCACGTGGGTCT,-0.24
3,AGCATCACGTGGTTTT,0.16
4,AGTTTCACGTGAGTAT,0.43
5,TAATTCACGTGGTGGG,0.26
6,CGTTGCACGTGAGGCG,0.19
7,GATATCACGTGTCGTG,0.14
8,GGGACCACGTGAAGTG,0.27
9,GGAGGCACGTGTGTAC,-0.11
10,GTGCGCACGTGAGGTT,0.36
11,AAGGTCACGTGACGTT,0.18
12,GGAAACACGTGGGGGA,-0.11
13,TCTGTCACGTGGATTG,0.07
14,AAATGCACGTGCTAGG,0
15,GGTTGCACGTGTAAGG,0.16
16,AACGTCACGTGGTTAG,0.02
17,TAGTCCACGTGGTTAT,-0.04
18,TAAATCACGTGCTTTG,0.27
19,TAGTGCACGTGTGCGT,-0.18
20,GATTGCACGTGGCTTG,-0.17
21,CTTGACACGTGTAGGC,0.25
22,TTGGACACGTGAGATG,0.16
